For 72 molecules, activation results are on record in PubChem BioAssay AID1645887 (National Center for Advancing Translational Sciences (NCATS), 2021).

Several values for one entry are separate records, joined by “and”; a condition that tells them apart may be missing. Identical values can stand only once. Among all 16,000 compounds or so, about 40 (0.2%) were called active. About 1% were inconclusive and are not listed. Calls follow the shape of the dose curve; as a rule, active = well fitted activation curve with a large enough effect; inconclusive = small, poorly fitted or top-dose-only effect, or another doubt; inactive = no such curve, though single readings can be large or run the other way. This is one part of the list. Residues, ends and D or L forms follow the SMILES beside them. *: point of attachment. CH2Cl = ClC*
% is scaled to controls: 0 for no effect and ±100 for the full control effect.

Chain of UniProt Q8WZA2 (Q8WZA2 whole entry, looked up): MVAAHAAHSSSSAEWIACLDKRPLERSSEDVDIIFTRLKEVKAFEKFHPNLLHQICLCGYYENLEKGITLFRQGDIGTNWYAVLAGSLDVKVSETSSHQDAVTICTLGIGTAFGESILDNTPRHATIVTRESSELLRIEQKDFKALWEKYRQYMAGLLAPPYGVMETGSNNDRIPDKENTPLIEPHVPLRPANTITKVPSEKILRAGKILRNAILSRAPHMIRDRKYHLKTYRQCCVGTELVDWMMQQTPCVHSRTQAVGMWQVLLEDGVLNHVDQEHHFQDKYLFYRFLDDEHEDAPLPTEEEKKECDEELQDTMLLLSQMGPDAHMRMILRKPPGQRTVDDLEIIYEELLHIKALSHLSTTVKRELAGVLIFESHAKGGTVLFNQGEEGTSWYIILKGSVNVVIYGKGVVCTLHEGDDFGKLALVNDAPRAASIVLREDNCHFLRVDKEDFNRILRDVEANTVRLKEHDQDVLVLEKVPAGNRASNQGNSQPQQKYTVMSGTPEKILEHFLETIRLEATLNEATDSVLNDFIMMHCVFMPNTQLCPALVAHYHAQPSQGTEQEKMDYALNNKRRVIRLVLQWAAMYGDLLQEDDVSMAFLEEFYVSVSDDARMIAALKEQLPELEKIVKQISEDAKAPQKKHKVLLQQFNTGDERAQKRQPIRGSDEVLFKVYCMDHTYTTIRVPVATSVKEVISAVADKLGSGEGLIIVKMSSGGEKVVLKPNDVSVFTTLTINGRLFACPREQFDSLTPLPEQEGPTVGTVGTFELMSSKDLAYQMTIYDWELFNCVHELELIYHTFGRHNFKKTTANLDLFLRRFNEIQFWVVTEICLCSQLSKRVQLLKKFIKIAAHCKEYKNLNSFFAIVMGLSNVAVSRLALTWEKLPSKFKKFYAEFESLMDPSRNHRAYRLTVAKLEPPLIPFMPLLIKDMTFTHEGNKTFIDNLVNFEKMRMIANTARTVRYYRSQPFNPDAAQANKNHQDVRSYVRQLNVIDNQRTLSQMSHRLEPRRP

The test concerns the target Rap guanine nucleotide exchange factor 4 (Homo sapiens) (UniProt Q8WZA2). Briefly: Validation qHTS for agonist of cAMP-regulated guanine nucleotide exchange factor 4 (EPAC2).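 Also: exchange makes BODIPY-GDP fluorescence drop when released from Rap1B; series mostly up to about 150 µM.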 The settings on record: EPAC2 Rap1B BODIPY-GDP exchange, fluorescence; activation: stronger effect = higher value. Summed up:
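Signal normalized against 6.5 mM cAMP as agonist control. Mix of EPAC2 (100 nM), RAP1B-BODIPY-GDP (250 nM) and GDP (50 uM) was read kinetically at 480/540 nm, every 5 min over 30 min, after 5 min room-temperature incubation with compound.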
For `O=C(O)c1nn(Cc2ccc(Cl)cc2Cl)c2ccccc12`, the activation was inactive: -4.99% and inactive: -3.12% and inactive: -54.4%. The same measure for `CNCCc1cnc[nH]1`: inactive: -20.5% and inactive: 11.6%; for `O=C(O)C(Cl)Cl`: inactive: -7.53% and inactive: -3.06%; for `O=C(NC(=O)c1c(F)cccc1F)Nc1ccc(Cl)cc1`: inactive: -14.2%.

With `C[C@@H]1C[C@@H]([C@H](O)CC2CC(=O)NC(=O)C2)C(=O)[C@@H](C)C1`, the activation was inactive: -6.15% and inactive: 1.58%. Take `CN1C(=O)COc2c(C(=O)N[C@@H]3CN4CCC3CC4)cc(Cl)cc21`: the activation was inactive: -14.6%. `COC[C@H]([C@@H](O)[C@@H](O)C(=O)NCC[C@@H](C)c1nc(/C=C/C[C@H]2OC3(C[C@H](O)[C@H]2C)OC([C@@H](C[C@@H](O)[C@@H](C)[C@@H](O)[C@@H](C)/C=C(C)/C(C)=C/C=C/C(C)=C\C#N)OC)[C@@H](OP(=O)(O)O)C3(C)C)co1)N(C)C` (some centres not stated): the activation was inactive: -11.1%.

Take `N#CC(C#N)=Cc1cc(O)c(O)c([N+](=O)[O-])c1`: the activation was inactive: -7.41%. Then `C[C@H](N)C(=O)c1ccccc1`, with inactive: 12.1% and inactive: -4.64%; and `CCOC(=O)c1ncn2c1[C@@H]1CCCN1C(=O)c1cc(OC)ccc1-2`, with inactive: -25.1%. The same measure for `NC(N)=Nc1ccc2[nH]c3c(c2c1)C[C@@]1(O)[C@H]2Cc4ccc(O)c5c4[C@@]1(CCN2CC1CC1)[C@H]3O5`: inactive: -53.2%; for `c1ccc(CN2CC[C@@]3(CCCNC3)C2)cc1`: inactive: -1.66%; for `c1cncc(C2CCCN2)c1` (configuration not stated): inactive: 8.74%. As to `COc1cc([N+](=O)[O-])cc([N+](=O)[O-])c1N`, the activation is inactive: -23%. With `CCC1(C2=NCCN2)Cc2ccccc2O1` (configuration not stated), the activation is inactive: 6.18% and inactive: -22.9% and inactive: -12.9%. The same measure for `C[C@H]1O[C@@H](O[C@H]2[C@@H](O)C[C@H](O[C@H]3[C@@H](O)C[C@H](O[C@H]4CC[C@]5(C)C6CC[C@]7(C)[C@@H](C8=CC(=O)OC8)CC[C@]7(O)C6CC[C@@H]5C4)O[C@@H]3C)O[C@@H]2C)C[C@H](O)[C@@H]1O` (some centres not stated): inactive: -0.872%; for `COc1cc(C2c3cc4c(c(O)c3CC3COC(=O)C32)OCO4)cc(OC)c1OC` (configuration not stated): inactive: -20.6%.

For `CC[C@@H](CO)NC(=O)[C@@H]1C=C2c3cccc4[nH]cc(c34)C[C@H]2N(C)C1`, the activation was inactive: -8.79% and inactive: -74.8%. Then `CCCCOC(=O)c1ccccc1C(=O)OCCCC`, with inactive: -27.8%; and `C/C(=C\C=C/[C@@H](C)C(=O)O)[C@H]1CN[C@H](C(=O)O)[C@@H]1CC(=O)O`, with inactive: -0.871%; and `CCC1(CCC(C)C)C(=O)NC(=O)NC1=O`, with inactive: -0.269%.

Take `Cn1sc(Cl)cc1=O`: the activation was inactive: 3.99%.

As for `C[C@H]1O[C@@H](O[C@H]2[C@@H](O)C[C@H](O[C@H]3[C@@H](O)C[C@H](O[C@H]4CC[C@@]5(C)[C@H](CC[C@@H]6[C@@H]5CC[C@]5(C)[C@@H](C7=CC(=O)OC7)CC[C@]65O)C4)O[C@@H]3C)O[C@@H]2C)C[C@H](O)[C@@H]1O`, the activation is inactive: -6.24%. Take `CN1CC[C@@H]2CN3CCc4cccc(c43)[C@@H]2C1`: the activation was inactive: 17.6%. Regarding `COc1ccc2c3c1O[C@H]1[C@@H](O)C=C[C@H]4[C@@H](C2)NCC[C@@]341`, the activation was inactive: -8.67% and inactive: -9.71%. The same measure for `C[N+]1(C)CCc2cc3c(cc2[C@H]1[C@@H]1OC(=O)c2c1ccc1c2OCO1)OCO3`: inactive: 1.77%. The same measure for `Cc1nnc2n1-c1ccc(Cl)cc1C(c1ccccc1)=NC2`: inactive: -2.57%; for `CCC/C=C/C=C/C(=O)O[C@H]1/C(=C/C(=O)OC)C[C@H]2C[C@H]([C@@H](C)O)OC(=O)C[C@H](O)C[C@@H]3C[C@H](OC(C)=O)C(C)(C)[C@](O)(C[C@@H]4C/C(=C/C(=O)OC)C[C@H](/C=C/C(C)(C)[C@]1(O)O2)O4)O3`: inactive: -44.1%. The same measure for `O=C(CN1CCCC1)c1ccccc1`: inactive: -13%. Consider `O=C(O)[C@@H]1CSC(c2cccnc2)N1` (some centres not stated), for which the activation is inactive: -5.34%. For the molecule `C=CCc1cc(OC)c2c(c1OC)OCO2`, the activation was inactive: -22.8%. The same measure for `COc1ccc2c(c1O)-c1cccc3c1[C@@H](C2)N(C)CC3`: inactive: -26.1%; for `NC(CCP(=O)(O)O)C(=O)O` (configuration not stated): inactive: 3.47% and inactive: -14.9%. Turning to `c1ccc(CN2CCCC3(CCNCC3)C2)cc1`, the activation is inactive: -19.1%. Then `COc1cccc(-c2ccc(O)c(CNC3CN4CCC3CC4)c2)n1` (configuration not stated), with inactive: -1.38%. For the molecule `COc1cc(C(O)CN)ccc1O` (configuration not stated), the activation was inactive: -29.8%. In the case of `c1cncc([C@@H]2CCCCN2)c1`, the activation is inactive: -12.5%. On to `CN1[C@@H]2CC[C@H]1CC(OC(=O)c1cc(Cl)cc(Cl)c1)C2` (some centres not stated), for which the activation was inactive: -10.7% and inactive: 0.252%. Regarding `CC(C)(O)[C@@H]1[C@H]2OC(=O)[C@@H]1[C@]1(O)C[C@H]3O[C@]34C(=O)O[C@H]2[C@]14C`, the activation was inactive: -19.2% and inactive: -14.1%. Consider `C[C@H](N)C(=O)N[C@@H](C)C(=O)N[C@@H](Cc1ccccc1)C(=O)CCl` (H-Ala-Ala-Phe-CH2Cl), for which the activation was inactive: -2.76%. In the case of `C[C@]12CC[C@H](O)C[C@H]1CC[C@@H]1[C@@H]2CC[C@]2(C)[C@@H](c3ccc(=O)oc3)C[C@H]3O[C@]132`, the activation is inactive: -22.3%. The same measure for `COc1cc2c(c(OC)c1OC)-c1ccc(O)c(=O)cc1C(NC(C)=O)CC2` (configuration not stated): inactive: -21.4%; for `Clc1ccc(Cl)cc1`: inactive: -22.1%; for `COC[C@H]1OC(=O)c2coc3c2[C@@]1(C)C1=C(C3=O)C2CCC(=O)[C@@]2(C)C[C@H]1OC(C)=O` (some centres not stated): inactive: 7.17% and inactive: -14.8%. As to `CN(C(=O)Cc1ccc(Cl)c(Cl)c1)[C@H](CN1CCCC1)c1cccc(N=C=S)c1`, the activation was inactive: 0.96%. Then `O=C(O)CF`, with inactive: -11.3%. As to `Cc1ccc2c(c1)[C@]13CCCC[C@@H]1[C@H](C2)N(C)CC3`, the activation is inactive: -9.05%. For the molecule `C=CCN1CCC23c4c5ccc(O)c4OC2/C(=N/N=C2\CCC4(O)C6Cc7ccc(O)c8c7C4(CCN6CC=C)C2O8)CCC3(O)C1C5` (configuration not stated), the activation was inactive: 9.31%. For `C[C@@H]1O[C@H](C[N+](C)(C)C)CS1`, the activation was inactive: -50.9%. The same measure for `CCOP(=O)(OCC)O/C(=C/Cl)c1ccc(Cl)cc1Cl`: inactive: 14.2%. On to `O=[N+]([O-])O[C@H]1CO[C@H]2[C@@H]1OC[C@H]2O[N+](=O)[O-]`, for which the activation is inactive: 2.32%.

Turning to `C[C@]12Cc3nonc3C[C@@H]1CC[C@@H]1[C@@H]2CC[C@@]2(C)[C@H]1CC[C@]2(C)O`, the activation was inactive: -2.22%. The same measure for `C=C1CC[C@@]2(O)[C@H]3Cc4ccc(O)c5c4[C@@]2(CCN3CC2CC2)[C@H]1O5`: inactive: -1.7%.

As for `Fc1ccc(C(OCCN2CCN(C/C=C/c3ccccc3)CC2)c2ccc(F)cc2)cc1`, the activation was inactive: 17%. For the molecule `CC(C)Oc1cccnc1N(C)C1CCN(Cc2ccccc2)CC1`, the activation is inactive: -41.7%. Then `NCC1(CC(=O)O)CCCCC1`, with inactive: -0.997% and inactive: -16.2% and inactive: -14.8%; and `COc1cc2ccc(=O)oc2c2ccoc12`, with inactive: -9.02%.

On to `C[C@]12CC[C@H]3[C@@H](CCC4=CC(=O)CC[C@@]43C)[C@@H]1CC[C@@H]2OC(=O)CCc1ccccc1`, for which the activation is inactive: 8.71%.

As for `COC1CC(OC2CC[C@@]3(C=O)C4CC[C@]5(C)C(C6=CC(=O)OC6)CC[C@@]5(O)C4CC[C@]3(O)C2)OC(C)C1O` (some centres not stated), the activation was inactive: -5.3%. The same measure for `CCC(=O)Nc1ccc(Cl)c(Cl)c1`: inactive: -4.73%; for `CCC(=O)C(CC(C)N(C)C)(c1ccccc1)c1ccccc1` (configuration not stated): inactive: -30.5%; for `C=CCc1ccc(OC)cc1`: inactive: -9.36%. Then `CCOC(=O)[C@]12Cc3ccccc3[C@H]1N(Cc1ccccc1)C(=O)c1ccccc12`, with inactive: -8.64%. Regarding `COc1ccc(OC)c([C@@H](O)[C@H](C)N)c1`, the activation is inactive: -14.4%. The same measure for `Cc1ccccc1-c1cncnc1NCCc1cnc[nH]1`: inactive: -5.07%. The same measure for `O=C(Nc1ccccc1)N1CC[C@@]2(CCCNC2)C1`: inactive: 1.31%.

As for `C=CCN1CC[C@]23c4c5ccc(O)c4O[C@@H]2/C(=N/N=C2\CC[C@@]4(O)C6Cc7ccc(O)c8c7[C@@]4(CCN6CC=C)[C@@H]2O8)CC[C@@]3(O)C1C5`, the activation was inactive: -12%.

Regarding `CC(O)(CS(=O)(=O)c1ccc(F)cc1)C(=O)Nc1ccc(C#N)c(C(F)(F)F)c1` (configuration not stated), the activation is inactive: -37.4%. With `CC1O[C@@H](O[C@@H]2C(O)C[C@H](O[C@@H]3C(O)C[C@@H](OC4CC[C@@]5(C)C6CC[C@]7(C)C(C8=CC(=O)OC8)CC[C@@]7(O)C6CC[C@@H]5C4)OC3C)OC2C)CC(O)[C@H]1O` (some centres not stated), the activation is inactive: -1.3%. Regarding `CCCn1c(=O)c2[nH]c(C3CCCC3)nc2n(CCCOC(=O)c2ccc(S(=O)(=O)F)cc2)c1=O`, the activation is inactive: -27.3%. Regarding `CN1C2CCC1CC(OC(c1ccccc1)c1ccc(Cl)cc1)C2` (configuration not stated), the activation was inactive: -13.7%. As to `CC1CC[C@@]2(OC1)O[C@@H]1[C@@H](O)[C@H]3C4CC[C@H]5C[C@@H](O[C@@H]6O[C@H](CO)[C@H](O[C@@H]7O[C@H](CO)[C@@H](O)[C@H](O[C@@H]8OC[C@@H](O)[C@H](O)[C@H]8O)[C@H]7O[C@@H]7O[C@H](CO)[C@@H](O)[C@H](O[C@@H]8O[C@H](CO)[C@@H](O)[C@H](O)[C@H]8O)[C@H]7O)[C@H](O)[C@H]6O)[C@H](O)C[C@]5(C)C4CC[C@]3(C)[C@H]1[C@@H]2C` (some centres not stated), the activation was inactive: -12.9%.
